# Test results taken from patent publication US20230120736A1, “ANTI-CD98 ANTIBODIES AND ANTIBODY DRUG CONJUGATES” (AbbVie Inc., priority 2016, published 2023).
# Legend:
# [1] = DAR determination by LC-MS; details: ADCs of Table 27
# Experimental: LC-MS analysis was performed using an Agilent 1100 HPLC system interfaced to an Agilent LC/MSD TOF 6220 ESI mass spectrometer. The ADC was reduced with 5 mM (final concentration) BOND-BREAKER TCEP solution (Thermo Scientific, Rockford, Ill.), loaded onto a Protein Microtrap (Michrom Bioresorces, Auburn, Calif.) desalting cartridge, and eluted with a gradient of 10% B to 75% B in 0.2 minutes at ambient temperature. Mobile phase A was H2O with 0.1% formic acid (FA), mobile phase B was acetonitrile with 0.1% FA, and the flow rate was 0.2 ml/min. Electrospray-ionization time-of-flight mass spectra of the co-eluting light and heavy chains were acquired using Agilent MassHunter™ acquisition software. The extracted intensity vs. m/z spectrum was deconvoluted using the Maximum Entropy feature of MassHunter software to determine the mass of each reduced antibody fragment. DAR was calculated from the deconvoluted spectrum by summing intensities of the naked and modified peaks for the light chain and heavy chain, normalized by multiplying intensity by the number of drugs attached. The summed, normalized intensities were divided by the sum of the intensities, and the summing results for two light chains and two heavy chains produced a final average DAR value for the full ADC.
# [2] = Size exclusion chromatography, % aggregate fraction of ADC; format: physicochemical; details: ADCs of Table 27
# Experimental: Size exclusion chromatography was performed using a Shodex KW802.5 column in 0.2M potassium phosphate pH 6.2 with 0.25 mM potassium chloride and 15% IPA at a flow rate of 0.75 ml/min. The peak area absorbance at 280 nm was determined for each of the high molecular weight and monomeric eluents by integration of the area under the curve. The % aggregate fraction of the conjugate sample was determined by dividing the peak area absorbance at 280 nm for the high molecular weight eluent by the sum of the peak area absorbances at […] of the high molecular weight and monomeric eluents multiplied by 100%.
Molecule,DAR by MS [1],% agg by SEC [2]
CD98 (CL-huAb104)-TX (conjugate) heavy: EVQLVESGGGLVQPGGSLRLSCATSGFTFIDYYMSWVRQAPGKGLEWLGFIRNKAYGYTTEYSASVKGRFTISRDNSKSILYLQMNSLKTEDTAVYYCTRDRPAWFVYWGQGTLVTVSSASTKGPSVFPLAPSSKSTSGGTAALGCLVKDYFPEPVTVSWNSGALTSGVHTFPAVLQSSGLYSLSSVVTVPSSSLGTQTYICNVNHKPSNTKVDKKV[omitted - human IgG1 Fc with changes] light: DIVMTQTPLSLPVTPGEPASISCKSSQSLLYSSNQKNYLAWYLQKPGQSPQLLIYWASTRESGVPDRFSGSGSGTDFTLKISRVEAEDVGVYYCQQYYSYPYTFGGGTKVEIKRTVAAPSVFIFPPSDEQLKSGTASVVCLLNNFYPREAKVQWKVDNALQSGNSQESVTEQDSKDSTYSLSSTLTLSKADYEKHKVYACEVTHQGLSSPVTKSFNRGEC,2.6,0.7%
CD98 (CL-huAb102)-YY (conjugate) heavy: EVQLVESGGGLVQPGGSLRLSCATSGFTFIDYYMSWVRQAPGKGLEWLGFIRNKANRYTTEYSASVKGRFTISRDNSKSILYLQMNSLKTEDTAVYYCTRDRPAWFVYWGQGTLVTVSSASTKGPSVFPLAPSSKSTSGGTAALGCLVKDYFPEPVTVSWNSGALTSGVHTFPAVLQSSGLYSLSSVVTVPSSSLGTQTYICNVNHKPSNTKVDKKV[omitted - human IgG1 Fc with changes] light: DIVMTQTPLSLPVTPGEPASISCKSSQSLLYSSNQKNYLAWYLQKPGQSPQLLIYWASTRESGVPDRFSGSGSGTDFTLKISRVEAEDVGVYYCQQYYSYPYTFGGGTKVEIKRTVAAPSVFIFPPSDEQLKSGTASVVCLLNNFYPREAKVQWKVDNALQSGNSQESVTEQDSKDSTYSLSSTLTLSKADYEKHKVYACEVTHQGLSSPVTKSFNRGEC,3.4,6.4%
CD98 (CL-huAb102)-TV (conjugate) heavy: EVQLVESGGGLVQPGGSLRLSCATSGFTFIDYYMSWVRQAPGKGLEWLGFIRNKANRYTTEYSASVKGRFTISRDNSKSILYLQMNSLKTEDTAVYYCTRDRPAWFVYWGQGTLVTVSSASTKGPSVFPLAPSSKSTSGGTAALGCLVKDYFPEPVTVSWNSGALTSGVHTFPAVLQSSGLYSLSSVVTVPSSSLGTQTYICNVNHKPSNTKVDKKV[omitted - human IgG1 Fc with changes] light: DIVMTQTPLSLPVTPGEPASISCKSSQSLLYSSNQKNYLAWYLQKPGQSPQLLIYWASTRESGVPDRFSGSGSGTDFTLKISRVEAEDVGVYYCQQYYSYPYTFGGGTKVEIKRTVAAPSVFIFPPSDEQLKSGTASVVCLLNNFYPREAKVQWKVDNALQSGNSQESVTEQDSKDSTYSLSSTLTLSKADYEKHKVYACEVTHQGLSSPVTKSFNRGEC,3.9,1.7%
CD98 (CL-huAb104)-WD (conjugate) heavy: EVQLVESGGGLVQPGGSLRLSCATSGFTFIDYYMSWVRQAPGKGLEWLGFIRNKAYGYTTEYSASVKGRFTISRDNSKSILYLQMNSLKTEDTAVYYCTRDRPAWFVYWGQGTLVTVSSASTKGPSVFPLAPSSKSTSGGTAALGCLVKDYFPEPVTVSWNSGALTSGVHTFPAVLQSSGLYSLSSVVTVPSSSLGTQTYICNVNHKPSNTKVDKKV[omitted - human IgG1 Fc with changes] light: DIVMTQTPLSLPVTPGEPASISCKSSQSLLYSSNQKNYLAWYLQKPGQSPQLLIYWASTRESGVPDRFSGSGSGTDFTLKISRVEAEDVGVYYCQQYYSYPYTFGGGTKVEIKRTVAAPSVFIFPPSDEQLKSGTASVVCLLNNFYPREAKVQWKVDNALQSGNSQESVTEQDSKDSTYSLSSTLTLSKADYEKHKVYACEVTHQGLSSPVTKSFNRGEC,–,0%
CD98 (CL-huAb104)-YY (conjugate) heavy: EVQLVESGGGLVQPGGSLRLSCATSGFTFIDYYMSWVRQAPGKGLEWLGFIRNKAYGYTTEYSASVKGRFTISRDNSKSILYLQMNSLKTEDTAVYYCTRDRPAWFVYWGQGTLVTVSSASTKGPSVFPLAPSSKSTSGGTAALGCLVKDYFPEPVTVSWNSGALTSGVHTFPAVLQSSGLYSLSSVVTVPSSSLGTQTYICNVNHKPSNTKVDKKV[omitted - human IgG1 Fc with changes] light: DIVMTQTPLSLPVTPGEPASISCKSSQSLLYSSNQKNYLAWYLQKPGQSPQLLIYWASTRESGVPDRFSGSGSGTDFTLKISRVEAEDVGVYYCQQYYSYPYTFGGGTKVEIKRTVAAPSVFIFPPSDEQLKSGTASVVCLLNNFYPREAKVQWKVDNALQSGNSQESVTEQDSKDSTYSLSSTLTLSKADYEKHKVYACEVTHQGLSSPVTKSFNRGEC,2.1,12.6%
CD98 (CL-huAb108)-TV (conjugate) heavy: EVQLVQSGAEVKKPGASVKVSCKASGFTFSDYTMAWVRQAPGQGLEWVATIIYSGRGTYYRDAVKGRFTITRDNSTSTLYLELSSLRSEDTAVYYCARQSDDTYYYWGYFDYWGQGTMVTVSSASTKGPSVFPLAPSSKSTSGGTAALGCLVKDYFPEPVTVSWNSGALTSGVHTFPAVLQSSGLYSLSSVVTVPSSSLGTQTYICNVNHKPSNTKVDKKV[omitted - human IgG1 Fc with changes] light: DIVMTQTPLSLPVTPGEPASINCKSSQSLLFSGNQKNYLAWYLQKPGQSPQLLIYWASTRQSGVPDRFSGSGSGTDFTLKISRVEAEDVGIYYCQQYYDVPYTFGQGTKLEIKRTVAAPSVFIFPPSDEQLKSGTASVVCLLNNFYPREAKVQWKVDNALQSGNSQESVTEQDSKDSTYSLSSTLTLSKADYEKHKVYACEVTHQGLSSPVTKSFNRGEC,3.3,1.6%
CD98 (CL-huAb110)-TX (conjugate) heavy: EVQLVQSGAEVKKPGASVKVSCKASGFTFSDYTMAWVRQAPGQGLEWVATIIYDARGTYYRDAVKGRFTITRDNSTSTLYLELSSLRSEDTAVYYCARQSDDTYYYWGYFDYWGQGTMVTVSSASTKGPSVFPLAPSSKSTSGGTAALGCLVKDYFPEPVTVSWNSGALTSGVHTFPAVLQSSGLYSLSSVVTVPSSSLGTQTYICNVNHKPSNTKVDKKV[omitted - human IgG1 Fc with changes] light: DIVMTQTPLSLPVTPGEPASINCKSSQSLLFSGNQKNYLAWYLQKPGQSPQLLIYWASTRQSGVPDRFSGSGSGTDFTLKISRVEAEDVGIYYCQQYYSSPYTFGQGTKLEIKRTVAAPSVFIFPPSDEQLKSGTASVVCLLNNFYPREAKVQWKVDNALQSGNSQESVTEQDSKDSTYSLSSTLTLSKADYEKHKVYACEVTHQGLSSPVTKSFNRGEC,2.0,2.4%
CD98 (CL-huAb104)-TV (conjugate) heavy: EVQLVESGGGLVQPGGSLRLSCATSGFTFIDYYMSWVRQAPGKGLEWLGFIRNKAYGYTTEYSASVKGRFTISRDNSKSILYLQMNSLKTEDTAVYYCTRDRPAWFVYWGQGTLVTVSSASTKGPSVFPLAPSSKSTSGGTAALGCLVKDYFPEPVTVSWNSGALTSGVHTFPAVLQSSGLYSLSSVVTVPSSSLGTQTYICNVNHKPSNTKVDKKV[omitted - human IgG1 Fc with changes] light: DIVMTQTPLSLPVTPGEPASISCKSSQSLLYSSNQKNYLAWYLQKPGQSPQLLIYWASTRESGVPDRFSGSGSGTDFTLKISRVEAEDVGVYYCQQYYSYPYTFGGGTKVEIKRTVAAPSVFIFPPSDEQLKSGTASVVCLLNNFYPREAKVQWKVDNALQSGNSQESVTEQDSKDSTYSLSSTLTLSKADYEKHKVYACEVTHQGLSSPVTKSFNRGEC,4.1,2.6%
CD98 (CL-huAb110)-TV (conjugate) heavy: EVQLVQSGAEVKKPGASVKVSCKASGFTFSDYTMAWVRQAPGQGLEWVATIIYDARGTYYRDAVKGRFTITRDNSTSTLYLELSSLRSEDTAVYYCARQSDDTYYYWGYFDYWGQGTMVTVSSASTKGPSVFPLAPSSKSTSGGTAALGCLVKDYFPEPVTVSWNSGALTSGVHTFPAVLQSSGLYSLSSVVTVPSSSLGTQTYICNVNHKPSNTKVDKKV[omitted - human IgG1 Fc with changes] light: DIVMTQTPLSLPVTPGEPASINCKSSQSLLFSGNQKNYLAWYLQKPGQSPQLLIYWASTRQSGVPDRFSGSGSGTDFTLKISRVEAEDVGIYYCQQYYSSPYTFGQGTKLEIKRTVAAPSVFIFPPSDEQLKSGTASVVCLLNNFYPREAKVQWKVDNALQSGNSQESVTEQDSKDSTYSLSSTLTLSKADYEKHKVYACEVTHQGLSSPVTKSFNRGEC,3.0,2%
